From US20220227872A1 (published 2022) come the findings set out here.

This experiment addresses T1, hTEM1-FL (full-length human TEM1 extracellular domain), soluble (UniProt Q9HCU0 18-687).
T1 chain: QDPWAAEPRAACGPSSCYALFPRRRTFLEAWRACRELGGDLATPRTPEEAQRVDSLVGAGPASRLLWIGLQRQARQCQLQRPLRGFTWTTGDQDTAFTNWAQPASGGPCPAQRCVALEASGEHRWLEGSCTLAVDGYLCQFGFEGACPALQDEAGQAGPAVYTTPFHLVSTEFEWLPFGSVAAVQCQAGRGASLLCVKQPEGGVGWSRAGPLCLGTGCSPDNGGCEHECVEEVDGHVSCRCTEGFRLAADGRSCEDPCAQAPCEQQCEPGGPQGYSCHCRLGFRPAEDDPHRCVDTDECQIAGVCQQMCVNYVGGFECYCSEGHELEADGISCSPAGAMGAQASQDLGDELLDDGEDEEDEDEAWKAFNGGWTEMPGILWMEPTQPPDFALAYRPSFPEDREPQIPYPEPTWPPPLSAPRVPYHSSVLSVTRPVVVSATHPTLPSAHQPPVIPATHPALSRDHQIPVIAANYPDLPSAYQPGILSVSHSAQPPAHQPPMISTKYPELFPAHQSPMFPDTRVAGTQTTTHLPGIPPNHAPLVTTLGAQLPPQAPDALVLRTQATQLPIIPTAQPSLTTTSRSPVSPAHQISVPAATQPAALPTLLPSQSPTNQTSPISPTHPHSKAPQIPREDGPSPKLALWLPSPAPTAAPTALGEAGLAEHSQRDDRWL
In words: SPR; scFv-Fc immobilized, hTEM1-FL analyte.

Positions count from the first letter of the chain named.

B1: anti-TEM1 scFv-Fc fusion 1C1mut (Fc fusion)
VH: QVQLVQSGAEVKKPGSSVKVSCKASGGTFSSYAISWVRQAPGQGLEWMGGIIPIFGTANYAQKFQGRVTITADKSTSTAYMELSSLRSEDTAVYYCASLISYYGDPTGFDYWGQGTLVTVSS
VL: QPVLTQPPSASGTPGQRVTIS[sequence of about 80 residues not given]FGGGTKLTVL
As to B1, the Kd is around 0.001 µM.

B2: anti-TEM1 scFv-Fc fusion 1C1 (Fc fusion)
VH: B1 VH with I100T
VL: QPVLTQPPSASGTPGQRVTIS[sequence of about 80 residues not given]FGGGTKLTVL
B2: the dissociation constant Kd is around 0.08 µM.
